In PubChem BioAssay AID1347070 (National Center for Advancing Translational Sciences (NCATS), 2019):
In all, about 94,000 compounds went through this assay and about 20 (0.02%) were called active. The inconclusive results got no clear call from the source; some entries with a clear call stand among them for comparison. Calls come from the whole dose curve; as a rule, active = well fitted activation curve with a large enough effect; inconclusive = small, poorly fitted or top-dose-only effect; inactive = flat fitted curve, though single readings scatter. Potencies of inconclusive entries are left out as doubtful fits.
Potency is the fitted concentration of half-maximal effect; tags give direction and shape of the fitted curve.

Experiment: qHTS of alpha-syn Inhibitors: NCGC Sytravon Library Screen; for growth rescue (activation): 0% is about no effect
Details: S. cerevisiae alpha-synuclein toxicity rescue, BacTiter-Glo growth, 24 h; growth rescue (activation): at 46.1 µM (top of the series)
Method in brief: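 Growth restoration measured by BacTiter-Glo luminescence after 24 hr at 30 deg C; alpha-synuclein yeast, raffinose-pregrown to mid-log, were added at OD600=0.02 in galactose medium onto pinned compounds.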
In the case of `COc1ccc(C)c2sc(N(Cc3cccnc3)C(=O)C3CCCCC3)nc12`, the Potency is reported as inconclusive [activator, single point].
With `O=S(=O)(c1ccccc1F)N1CCC(Oc2ccc(-n3cnnn3)cc2)CC1` the Potency was inconclusive [activator, single point].
In the case of `CC1(C)C(=O)N(c2ccccc2F)C(=O)c2ccccc21`, the growth rescue (activation) is reported as inconclusive: 68.5% [activator].
For `Cc1cccc(N(CC(=O)NCCSCc2ccc(Cl)cc2)S(C)(=O)=O)c1C`, the Potency was inconclusive [activator, single point].
In the case of `COC(=O)c1sccc1NC(=S)NCc1ccc(Cl)cc1`, the growth rescue (activation) is reported as inconclusive: 493% [activator].
In the case of `Cc1cc(OCCCn2c(CCNC(=O)C3CCCCC3)nc3ccccc32)ccc1Cl`, the Potency is reported as inconclusive [activator, single point].
In the case of `COC(=O)N/N=C/c1ccc(OS(=O)(=O)c2ccc(C)cc2)c(OC)c1`, the “growth rescue (activation)” value is reported as inactive: 4.99%.
In the case of `Nc1cc(=O)nc(SCC(=O)Nc2ccc(F)cc2)n1-c1cccc(Cl)c1`, the Potency is reported as inconclusive [activator, single point].
In the case of `Cc1ccccc1C(=O)Nc1ccc(OCc2cc(=O)n3ccccc3n2)cc1`, the Potency is reported as inconclusive [activator, single point].
With `Cc1cccc(-c2nc3c4ccccc4n(Cc4cccc(Cl)c4)c(=O)n3n2)c1` the Potency was inconclusive [activator, single point].
In the case of `CCc1ccc(NC(=O)CSc2ccc(-c3ccccn3)nn2)cc1`, the Potency is reported as inconclusive [activator, single point].
With `Cc1cccc(NS(=O)(=O)c2ccc3c(c2)[C@H]2C=CC[C@H]2[C@@H](c2ccc(F)cc2)N3)c1` the Potency was inconclusive [activator, single point].
For `Cc1ccccc1CC1C(=O)Nc2ccc(Br)cc21` (stereo unspecified), the Potency was inconclusive [activator, single point].
With `C/C(=N\NC(=O)c1ccccc1OCCOc1ccccc1)c1ccccc1F` the growth rescue (activation) was inconclusive: 50% [activator].
In the case of `CC(C)CC1C(=O)N(Cc2cn(CCC3OCCO3)nn2)CCS(=O)(=O)N1Cc1ccc(-c2ccc(Cl)c(Cl)c2)cc1` (stereo unspecified), the growth rescue (activation) is reported as inconclusive: 94% [activator].
For `COc1ccc(-c2onc(C)c2C)cc1S(=O)(=O)NCc1ccc(Br)cc1`, the Potency was inconclusive [activator, single point].
In the case of `COc1ccc(CNC(=O)c2ccc3[nH]c(C)c(C)c3c2)c(OC)c1`, the Potency is reported as inconclusive [activator, single point].
In the case of `CC(=O)N1c2ccccc2C(=O)C1N1CCN(c2ccc(F)cc2)CC1` (stereo unspecified), the Potency is reported as inconclusive [activator, single point].
With `Cc1cccc(C(=O)OCC(=O)Nc2nnc(-c3ccccc3)o2)c1O` the growth rescue (activation) was inconclusive: 37.4% [activator].
For `CCC1CN(C(=O)N2CCC(C(=O)NCCC3=CCCCC3)CC2)c2cc(C)ccc2O1` (stereo unspecified), the Potency was inconclusive [activator, single point].
In the case of `Cc1ccc(CNC(=O)c2nc(-c3ccc(Cl)cc3)n3c2CCCCC3)cc1`, the Potency is reported as inconclusive [activator, single point].
In the case of `O=C(CCSCc1ccccc1F)N1CCN(c2ccc(Cl)cc2)CC1`, the Potency is reported as inconclusive [activator, single point].
In the case of `CC(C)Sc1nc2sccc2c(=O)n1-c1ccccc1`, the growth rescue (activation) is reported as inconclusive: 58.7% [activator].
With `Cc1ccc(C(=O)CC2(O)C(=O)N(Cc3ccccc3)c3ccccc32)c(C)c1` (stereo unspecified) the Potency was inconclusive [activator, single point].
In the case of `Oc1ccc(N=Nc2ccc3c(c2)OCCO3)c2ncccc12`, the growth rescue (activation) is reported as inconclusive: 119% [activator].
For `CCCN(Cc1cccs1)C(=O)Nc1ccc(F)c(Cl)c1`, the Potency was inconclusive [activator, single point].
With `CCOC(=O)CSC1=Nc2ccccc2C2=NC(CCC(=O)NCc3ccccc3)C(=O)N12` (stereo unspecified) the “growth rescue (activation)” value was inactive: -2.42%.
In the case of `Cc1cc(-c2ccc(C)c(S(=O)(=O)N(Cc3cccs3)C(C)C)c2)on1`, the Potency is reported as inconclusive [activator, single point].
For `N#Cc1c(N)c(C(=O)c2ccccc2)n2ccccc12`, the growth rescue (activation) was inconclusive: 172% [activator].
In the case of `O=C(Nc1cc(-c2ccc(F)c(F)c2)no1)c1ccccc1F`, the “growth rescue (activation)” value is reported as inactive: -0.122%.
For `COc1cccc(C(=O)c2cn(CC(=O)Nc3ccc4c(c3)OCCO4)c3nc(C)ccc3c2=O)c1`, the “growth rescue (activation)” value was inactive: 8.6%.
For `CCc1ccc(CNC(=O)c2cnc3sc(N4CCCCCC4)nn3c2=O)cc1`, the “growth rescue (activation)” value was inactive: -0.931%.
With `COC(=O)c1ccccc1NC(=O)CSc1c2c(nc3ccc(Cl)cc13)CCCC2` the Potency was inconclusive [activator, single point].
In the case of `O=C(Nc1cccc(Cl)c1Cl)c1cc(S(=O)(=O)N2CCC3(CC2)OCCO3)ccc1F`, the Potency is reported as inconclusive [activator, single point].
With `Cc1cc(-c2ccc(C)c(S(=O)(=O)N(C)c3ccc(C)c(C)c3)c2)on1` the Potency was inconclusive [activator, single point].
In the case of `CCS(=O)(=O)c1ncc(Cl)c(C(=O)N2CCN(c3cccc(Cl)c3)CC2)n1`, the “growth rescue (activation)” value is reported as inactive: 14.8%.
With `O=C(Nc1ccc2nc(SCCOc3ccccc3Cl)sc2c1)c1cccs1` the “growth rescue (activation)” value was inactive: 4.53%.
In the case of `O=C(Oc1coc(CSc2ncccn2)cc1=O)c1ccc(Br)o1`, the growth rescue (activation) is reported as inconclusive: 39.7% [activator].
In the case of `COC(=O)c1ccc(C(=O)OC)c(NC(=O)N2CC3CCCN3c3ccccc32)c1` (stereo unspecified), the “growth rescue (activation)” value is reported as inactive: 0.104%.
In the case of `Cc1[nH]n(-c2ccccc2)c(=O)c1/C=N/N1C(=O)c2cccc3cccc(c23)C1=O`, the growth rescue (activation) is reported as inconclusive: 31.2% [activator].
With `COc1ccccc1CCNC(=O)Cc1c(C)c2cc3c(C(C)(C)C)coc3c(C)c2oc1=O` the “growth rescue (activation)” value was inactive: -4.16%.
In the case of `COc1ccccc1NC(=O)CN1C(=O)CC(c2ccc(C)c(C)c2)=Nc2ccccc21`, the “growth rescue (activation)” value is reported as inactive: -6.6%.
With `COc1ccc(C2=C(C)C(N3CCC(C(=O)Nc4cc(C)ccc4C)CC3)=NS2(=O)=O)cc1` the “growth rescue (activation)” value was inactive: 3.98%.
For `CCOC(=O)C1=C(CN2CCN(c3cccc(OC)c3)CC2)NC(=O)NC1c1ccc(OC)cc1` (stereo unspecified), the “growth rescue (activation)” value was inactive: 9.79%.
With `CCOC(=O)c1ccc(NC(=O)C(C)N(c2ccc(OCC)cc2)S(C)(=O)=O)cc1` (stereo unspecified) the “growth rescue (activation)” value was inactive: 12.3%.
With `Cc1c(C(=O)Nc2ccc(F)c(F)c2)oc2ccc(S(=O)(=O)N(C)C3CCCCC3)cc12` the “growth rescue (activation)” value was inactive: 4.05%.
With `CCOc1ncccc1C(=O)OCC(=O)Nc1nnc(-c2ccccc2)o1` the growth rescue (activation) was inconclusive: 224% [activator].
With `O=S(=O)(c1ccc(F)cc1)N1CCC(n2c(C(F)(F)F)nc3cccnc32)CC1` the “growth rescue (activation)” value was inactive: 2.39%.
With `COC(=O)c1cc(C(=O)OC)cc(N2C(=O)CC(NNC(=O)c3ccc(C)cc3)C2=O)c1` (stereo unspecified) the “growth rescue (activation)” value was inactive: 6.52%.
For `COC(=O)C12CCC(C)(c3nc4ccccc4nc31)C2(C)C` (stereo unspecified), the growth rescue (activation) was inconclusive: 105% [activator].
With `Cc1oc(-c2ccc(Cl)cc2)nc1CSCC(=O)NCc1ccccc1Cl` the “growth rescue (activation)” value was inactive: -8.73%.
In the case of `CCCCCn1c(=O)c2ccccc2n2c(CCl)nnc12`, the growth rescue (activation) is reported as inconclusive: 91.9% [activator].
In the case of `CCN1C(C(=O)c2ccccc2)=C(OC(=O)COc2ccccc2)c2ccccc2S1(=O)=O`, the growth rescue (activation) is reported as inconclusive: -56.4% [activator].
For `Cc1cc(C)c(S(=O)(=O)N2CCN(Cc3nc4ccc(C)cc4o3)CC2)c(C)c1`, the Potency was inconclusive [activator, single point].
In the case of `Cc1cc(C)c(OCC(=O)Nc2nc(-c3ccccn3)cs2)c(C)c1`, the growth rescue (activation) is reported as inconclusive: 613% [activator].
For `Cc1cc(C)cc(C(=O)Nc2c(C(=O)Nc3ccccc3F)oc3ccccc23)c1`, the “growth rescue (activation)” value was inactive: -6.59%.
For `COc1ccc(NC(=O)Cn2cnc3ccc(S(=O)(=O)N4CCC(C)CC4)cc3c2=O)cc1Cl`, the “growth rescue (activation)” value was inactive: -5.28%.
With `CCCCN(Cc1cccs1)S(=O)(=O)c1cc(-c2cc(C)no2)ccc1C` the Potency was inconclusive [activator, single point].
With `O=C(Cc1ccccc1)N(Cc1cccnc1)c1nc2ccc(Cl)cc2s1` the Potency was inconclusive [activator, partial curve].
In the case of `CCOC(=O)CC(NC(=O)CCc1c(C)nc2c(-c3ccccc3)c(C)nn2c1C)c1ccc(C)cc1` (stereo unspecified), the Potency is reported as inconclusive [activator, single point].
In the case of `CCOc1ccc(C2c3[nH]c4ccccc4c3CCN2C(=O)CSc2ccccc2)cc1` (stereo unspecified), the “growth rescue (activation)” value is reported as inactive: 13.5%.
In the case of `O=c1[nH]c2ccc(S(=O)(=O)N3CCCC3)cc2[nH]1`, the “growth rescue (activation)” value is reported as inactive: 0.361%.
In the case of `COc1ccc(Cl)cc1NC(=O)CN(c1cccc(C)c1C)S(C)(=O)=O`, the Potency is reported as inconclusive [activator, single point].
With `CCOC(=O)c1c(NC(=O)Nc2ccc(F)cc2)sc2c1CCN(C)C2` the growth rescue (activation) was inconclusive: 120% [activator].
In the case of `Clc1cccc(N2CCN(c3ncnc4c3nc3n4CCCC3)CC2)c1`, the Potency is reported as inconclusive [activator, single point].
With `CC(C)c1nnc(NC(=O)c2nc(SCc3ccc(F)cc3)ncc2Cl)s1` the Potency was inconclusive [activator, single point].
In the case of `Cc1cc2n(n1)CCCN2C(=O)Nc1ccc(Cl)cc1`, the “growth rescue (activation)” value is reported as inactive: -11.2%.
In the case of `O=C(CSCc1ccc(F)cc1)N1CCN(c2ccc(Cl)cc2)CC1`, the Potency is reported as inconclusive [activator, single point].
For `CCC(=O)Nc1cccc(OCc2cc(=O)n3cc(C)ccc3n2)c1`, the Potency was inconclusive [activator, single point].
With `CCc1ccc(NS(=O)(=O)c2c(-c3ccccc3)csc2C(=O)OC)cc1` the Potency was active: 25.1 µM.
With `CN(CCCNC(=O)c1cc2c(=O)n(C)c3ccccc3c2s1)Cc1ccccc1` the Potency was inconclusive [activator, single point].
